# From PubChem BioAssay AID1345083 (National Center for Advancing Translational Sciences (NCATS), 2018)
# Values joined by “and” are separate entries in the source; they are usually repeats but may differ in a detail not shown here. Identical values can stand only once. About 6,200 (6.6%) of roughly 94,000 compounds were called active. Inconclusive results, whose numbers are uncertain, are shown with a selection of clear calls. Calls follow the shape of the dose curve; as a rule, active = well fitted inhibition curve with a large enough effect; inconclusive = small, poorly fitted or top-dose-only effect; inactive = flat fitted curve, though single readings scatter. Where the call is inconclusive, the potency comes from a doubtful curve fit.
# Assay: Cytotoxic Profiling in HEK 293 Cell Line of Diverse Libraries Using Quantitative High-Throughput Screening; also: nearly all actives have a fitted effect of over 60% in size
# Conditions: HEK 293 viability, ATP luminescence (CellTiter-Glo), 48-72 h; series mostly up to 115 µM
# Outline: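 Luminescence from cellular ATP, measured with CellTiter-Glo, indicates HEK 293 viability. Cells plated at 250 cells/well are treated with compound for 48 or 72 hr at 37 degree Celsius before reagent addition.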
# Potency is read from the fitted curve at half-maximal effect; tags tell the direction and shape of the fitted curve.
row,Compound,Potency
1,Cc1ccc(C(=O)N2CCCC(n3cc(-c4nc(C5CC5)no4)nn3)C2)s1 (stereo not drawn),"inconclusive: 79.4 µM [inhibitor, single point]"
2,COc1ccc(NC(=O)Cn2nc3c(cc2=O)CCCCC3)cc1Cl,"inconclusive: 35.5 µM [inhibitor, partial curve]"
3,O=C(NC1CCN(Cc2ccc(-c3ccsc3)cc2)C1)c1ccc(C(F)(F)F)cc1 (stereo not drawn),inactive
4,CC(C)(C)c1nnc2ccc(C(=O)NCCc3ccc(Cl)cc3)cn12,inactive
5,O=C1NCCCCCN(C(=O)COc2ccc(F)cc2)[C@H]2CCC[C@@H]12,inactive
6,O=C(C1CC1)N1CCN(CCn2nc3n(c2=O)CCCC3)CC1,inactive
7,Cc1ccc(CN2CCCC23Cc2ccccc2CNC3=O)cc1C (stereo not drawn),"inconclusive: 89.1 µM [inhibitor, partial curve, poor fit]"
8,COc1cc(NC(=O)CN2C(=O)C(c3ccccc3)=NC2(C)C)cc(OC)c1OC,inactive
9,CNC(=O)[C@@H]1C[C@H](Oc2ccccc2)CN1C(=O)CCCc1c[nH]c2ccccc12,"inconclusive: 39.8 µM [inhibitor, partial curve, poor fit]"
10,O=C1CC(c2ccccc2)N(C(=O)CNC(=O)c2ccc(Cn3cncn3)o2)CCCCCN1 (stereo not drawn),"inconclusive: 89.1 µM [inhibitor, single point]"
11,COc1cccc(C(=O)NC2CCN(c3ccc4nnc(C5CC5)n4n3)C2)c1 (stereo not drawn),"inconclusive: 50.1 µM [inhibitor, partial curve, poor fit]"
12,CCn1ccc(C(=O)N2CCC(Oc3ccccc3-c3nc(-c4ccccc4)no3)C2)n1 (stereo not drawn),"inconclusive: 50.1 µM [inhibitor, partial curve, poor fit]"
13,COCCN1CCNc2nc(CNCc3cnccn3)n(Cc3ccccc3)c2C1=O,inactive
14,CCN(C(C)=O)C1CCN(Cc2nc(-c3cccc(Cl)c3)oc2C)C1 (stereo not drawn),"inconclusive: 56.2 µM [inhibitor, partial curve, poor fit]"
15,CC(C)Oc1cccc(-c2nc(C(=O)NCc3ccco3)cs2)c1,"inconclusive: 79.4 µM [inhibitor, partial curve, poor fit]"
16,O=C(Nc1cccn2nc(C3CCC3)nc12)c1ccc(F)cc1F,inactive
17,CN(C)S(=O)(=O)N1CCC2(CC1)CC1C(=O)NCCN1C2 (stereo not drawn),inactive
18,CS(=O)(=O)N1Cc2ccccc2CC2(CCCN(CC3CCNC3)C2)C1 (stereo not drawn),inactive
19,O=C1COCC2(CN1)CN(Cc1ccc3c(c1)CCO3)C2,"inconclusive: 141 µM [inhibitor, single point]"
20,O=[S+]1([O-])NCC2(CCN(Cc3ccccn3)CC2)Oc2ncccc21,inactive
21,O=C(c1c(F)cccc1F)N(CC1CCOC1)C1CC1 (stereo not drawn),inactive
22,O=C(Cc1ccccn1)N1CCC2(CC1)CC(=O)N(c1ccccc1)c1ccccc1O2,"inconclusive: 89.1 µM [inhibitor, single point]"
23,Cc1nc(N2CCC(NCCNc3ccncc3C)CC2)c2ccsc2n1,active: 35.5 µM

row,Compound,Potency
1,Cc1oc2c(c1C(=O)N1CCN(C3CCCC3)CC1)CN(Cc1cccc(F)c1)CC2,"inconclusive: 100 µM [inhibitor, single point]"
2,COc1ccccc1-c1cccc(C(=O)N2CCN(C(=O)Nc3ccc(Cl)cc3)CC2)c1,"inconclusive: 39.8 µM [inhibitor, partial curve]"
3,COc1ccc(OC)c(NC(=O)C2CC(=O)N(c3n[nH]c4cccc(F)c34)C2)c1 (stereo not drawn),"inconclusive: 89.1 µM [inhibitor, single point]"
4,O=C(NC(C(=O)N1CCOCC1)C1CCN(C(=O)c2cccc(F)c2)CC1)c1ccc2c(c1)OCO2 (stereo not drawn),inactive
5,O=C(Cn1cccc1-c1nc(-c2ccccc2)no1)NCc1ccccc1,"inconclusive: 89.1 µM [inhibitor, partial curve, poor fit]"
6,CN(C)Cc1cc(CC2(NCc3ccncc3)COC2)no1,inactive
7,COc1ccc(C(=O)N2CCN(c3ccnc4ccnn34)CC2)cc1,"inconclusive: 100 µM [inhibitor, partial curve, poor fit]"
8,CCc1nc(-c2c3n(c(=O)n(Cc4ccc(C(=O)OC)cc4)c2=O)CCCC3)no1,inactive
9,CN(Cc1ccccc1)C(=O)CC1CCN(C(=O)CCC2CCCC2)C1 (stereo not drawn),"inconclusive: 56.2 µM [inhibitor, partial curve, poor fit]"
10,COc1ccc(C2Cn3nnc(C(=O)N4CCN(C(=O)c5cc(F)ccc5F)CC4)c3CO2)cc1 (stereo not drawn),"inconclusive: 56.2 µM [inhibitor, partial curve, poor fit]"
11,c1ccc(-c2nc3ccncc3[nH]2)cc1,"inconclusive: 112 µM [inhibitor, partial curve] and inconclusive: 126 µM [inhibitor, partial curve, poor fit]"
12,c1ccc(C2CCN(c3ccc4nnc(-c5ccccn5)n4n3)CC2)cc1,active: 63.1 µM
13,O=C(NCc1ccc(F)cc1)c1cn2cc(-c3ccc(C(F)(F)F)cc3)sc2n1,active: 50.1 µM
14,COc1ccc(C(=O)NC2CCN(C(=O)c3cc4c(=O)[nH]c(C)cn4n3)CC2)cc1,inactive
15,Cc1ccc(-c2cn3c(n2)N(C(=O)C2CCCO2)CCC3)cc1 (stereo not drawn),"inconclusive: 50.1 µM [inhibitor, partial curve, poor fit]"
16,Cc1ccc(C(=O)N2CCC(N3Cc4cnc(C)n4C3=O)CC2)cc1,"inconclusive: 14.1 µM [inhibitor, full curve]"
17,Cc1noc(C)c1CN1CCNc2cc(-c3ccccc3)ncc2C1,"inconclusive: 89.1 µM [inhibitor, partial curve]"
18,COC(=O)CNC(=O)c1cn2cc(-c3ccccc3)sc2n1,inactive
19,COc1ccc(NC(=O)c2ccc3c(c2)OCCN(CCC(C)C)C3)cn1,"inconclusive: 56.2 µM [inhibitor, partial curve, poor fit]"
20,COCCCNC(=O)c1ccc2oc(-c3cccnc3)nc2c1,inactive
21,COc1ccc(CC(=O)N2CCC(C(=O)N3CCCC3c3nc4ccncc4[nH]3)CC2)cc1 (stereo not drawn),inactive
22,COc1ccc(-c2cccc(C(=O)N3CCN(C(C)=O)CC3)c2)nn1,inactive
23,Cc1cccc(CC(=O)N2CCCCCC2c2nnc(-c3ccccc3)o2)c1 (stereo not drawn),active: 79.4 µM

row,Compound,Potency
1,CCOCCCNC(=O)NCC1Cn2cccc2CN1Cc1ccccc1 (stereo not drawn),inactive
2,CN(Cc1cccnc1)c1ccc2ncc(Nc3ccc(F)cc3)n2n1,active: 79.4 µM
3,Cc1nn(-c2ccccc2)c2c1C(C1CC1)N(C1CCN(C(=O)Nc3ccc(Cl)cc3)C1)C2=O (stereo not drawn),"inconclusive: 100 µM [inhibitor, partial curve, poor fit]"
4,O=C(NCc1ccc(Cl)nc1)c1cn2c(n1)CN(C(=O)c1ccccc1)CC2,inactive
5,O=C(c1ccc2nnc(-c3ccc(OC(F)(F)F)cc3)n2c1)N1CCOCC1,"inconclusive: 35.5 µM [inhibitor, partial curve, poor fit]"
6,COc1ccc(C2Cn3cnc(C(=O)N4CCC(C(=O)NCc5ccc(F)cc5)CC4)c3CO2)cc1 (stereo not drawn),inactive
7,Nc1nc2c(c(NC3CC3)n1)CCN(C(=O)CCCn1cncn1)CC2,"inconclusive: 35.5 µM [inhibitor, full curve]"
8,CC1=C[C@@H](CC#N)[C@H](C(C)C)C[C@H]1CC(=O)NCc1ccccc1,"inconclusive: 126 µM [inhibitor, single point]"
9,CC[C@H]1CN(C(C)=O)CC[C@H]1CC(=O)Nc1ccccc1,inactive
10,COc1cccc(C(=O)N2CCn3c(nn(-c4ccncc4)c3=O)C2)c1,"inconclusive: 11.2 µM [inhibitor, full curve, poor fit]"
11,Cc1nn2c(c1-c1ccccc1C(C)C)N(C(=O)C1CCOCC1)CCC2,"inconclusive: 126 µM [inhibitor, single point]"
12,CCN1c2cc(C(=O)NCc3cccc(Cl)c3)ccc2C(=O)N2CCCCC21 (stereo not drawn),"inconclusive: 89.1 µM [inhibitor, single point]"
13,Cc1ccc(CN2CCc3nc(C)nc(-c4ccc(O)cc4)c3C2)cc1,"inconclusive: 44.7 µM [inhibitor, full curve, poor fit]"
14,COc1cccc(CN2CCC3(Cc4ccccc4CNC3=O)C2)c1 (stereo not drawn),"inconclusive: 79.4 µM [inhibitor, partial curve, poor fit]"
15,O=C(NC1CCCC1)N1CCCC(C(=O)N2CCC(N3Cc4cccn4C3=O)CC2)C1 (stereo not drawn),"inconclusive: 25.1 µM [inhibitor, full curve]"
16,O=C(CCn1ccn2nc3c(c2c1=O)CCCC3)N1CCN(c2ccc(F)cc2)CC1,"inconclusive: 89.1 µM [inhibitor, single point]"
17,O=C(NCCOc1ccccc1)c1nc2c(o1)CCN(Cc1cccs1)CC2,"inconclusive: 126 µM [inhibitor, single point]"
18,O=C(c1ccc(Cl)s1)N1CCC2(CC1)CN(c1ccncn1)CC2CO (stereo not drawn),active: 50.1 µM
19,O=C(NC1C=CS(=O)(=O)C1)c1ccc2nc(-c3ccc(F)cc3)cn2c1 (stereo not drawn),active: 44.7 µM
20,Cc1ccc(S(=O)(=O)N2CCC(CCC(=O)NCc3cccc(F)c3)CC2)cc1,"inconclusive: 50.1 µM [inhibitor, partial curve, poor fit]"
21,CCC1Oc2ccc(NS(=O)(=O)c3ccc(Cl)cc3)cc2CN(Cc2ccc(F)cc2)C1=O (stereo not drawn),"inconclusive: 35.5 µM [inhibitor, full curve, poor fit]"
22,COc1ccc(C(=O)N2CCCN(c3cc(-c4ccc(C)c(C)c4)[nH]n3)CC2)cc1OC,"inconclusive: 35.5 µM [inhibitor, full curve]"
